# Test results taken from PubChem BioAssay AID938 (National Center for Advancing Translational Sciences (NCATS), 2007).
# Among all 73,000 compounds or so, about 1,800 (2.5%) were called active. Inconclusive results, whose numbers are uncertain, are shown with a selection of clear calls. The call rests on the fitted dose curve; in most records, active means well fitted activation curve with a large enough effect; inconclusive means small, poorly fitted or top-dose-only effect; inactive means no such curve, though single readings can be large or run the other way. No potency is given beside an inconclusive call; the fits are too rough.
# Test: qHTS Assay for Agonists of the Thyroid Stimulating Hormone Receptor: Activators of Intracellular cAMP Concentrations in Parental HEK 293; further: nearly all actives have a fitted effect of over 55% in size; on activation: % of control where 0% means no effect
# Details: parental HEK293 CNG cAMP sensor, membrane potential fluorescence; activation: at 57.1 µM (top of the series) unless noted
# Procedure, shortened: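 Parental HEK 293 cells stably expressing a modified CNG channel (no TSHR) report cAMP rise as membrane depolarization. Membrane potential dye with 100 uM RO 20-1724 was loaded for 60 min at room temperature, then compound added for 30 min; fluorescence read at 590 nm.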
# Potency means the concentration at half of the fitted maximal effect; tags describe the fitted curve by direction and shape.
SMILES,activation,Potency
COc1cccc(Cn2c(=O)c(-c3ccc(F)cc3)nc3cnc(N4CCNCC4)nc32)c1,inactive: 12.7%,
COc1ccc(-n2c(=O)c(-c3cn(C)c4ccccc34)nc3cnc(N4CCOCC4)nc32)cc1,,"inconclusive [activator, single point]"
N#Cc1cccc(-n2nnnc2-c2ccccn2)c1,,"inconclusive [activator, partial curve]"
CCCCCCOC(=O)C(C#N)c1nc2ccccc2nc1N1CCN(CC)CC1 (configuration not stated),inactive: -60.2%,
O=C(c1ccncc1)N1CCC2(CCN(Cc3ccccc3)CC2)CC1,,"inconclusive [activator, single point]"
CC(C)Cc1ccc(S(=O)(=O)N2CCN(C(=O)c3ccco3)CC2)cc1,,"inconclusive [activator, partial curve]"
Cc1cc(C)c2nc(N3CCCN(C(=O)c4ccco4)CC3)c(C#N)cc2c1,,"inconclusive [activator, single point]"
Cc1nn(C(=O)c2cccs2)c(N)c1-c1ccccc1,inactive: 0.474%,
CC1CCN(S(=O)(=O)c2ccc(-c3nnc(SCc4cccnc4)o3)cc2)CC1,,"inconclusive [activator, single point]"
Cc1nn(C)c(C)c1CNC(=O)c1nn2c(c1Cl)NC(c1cccs1)CC2C(F)(F)F (configuration not stated),,"inconclusive [activator, single point]"
O=C(c1ccc(CNS(=O)(=O)c2ccccc2)cc1)N1CCN(c2ccccn2)CC1,,"inconclusive [activator, single point]"
Cc1nc2cnc(N3CCN(C)CC3)nc2n(CCc2ccccc2)c1=O,,"inconclusive [activator, single point]"
CC1(C)CC[C@]2(C(=O)O)CC[C@]3(C)C(=CC[C@@H]4[C@@]5(C)CC[C@H](O)C(C)(C)[C@@H]5CC[C@@]43C)[C@@H]2C1,inactive: -1.09%,
CC(C)Cn1c(N)c(C(=O)NCCN2CCOCC2)c2nc3ccccc3nc21,,"inconclusive [activator, partial curve]"
CCOC(=O)c1cc(C)n(Cc2ccccc2)c1C,,"inconclusive [activator, single point]"
N#CCCn1c(=O)c(CCc2ccccc2)nc2cnc(Oc3ccccc3)nc21,,"inconclusive [activator, partial curve]"
CCC(C)(C(=O)NC1CCCC1)N(CC1CCCO1)C(=O)c1ccc2c(c1)OCO2 (configuration not stated),,"inconclusive [activator, full curve, poor fit]"
Cn1c(C(=O)N2CCN(c3ncccn3)CC2)cc2c(=O)n(C)c3ccccc3c21,,"inconclusive [activator, single point]"
O=C(c1ccccc1)c1ccc(N2CCNCC2)cc1,,"inconclusive [activator, single point]"
CCNc1nc(NC(C)C)nc(OCCNS(=O)(=O)c2cc(C)ccc2C)n1,,"inconclusive [activator, partial curve]"
O=C(NC1CCCCC1)c1noc2c1CCCCC2,inactive: 15.3%,
O=C(CSc1ncnc2c1cnn2-c1ccccc1)Nc1ccc2c(c1)OCO2,,"inconclusive [activator, single point]"
O=C1Nc2ccc(S(=O)(=O)N3CCCC3C(=O)O)c3cccc1c23 (configuration not stated),,"inconclusive [activator, single point]"

SMILES,activation,Potency
COCCn1c(=O)c(-c2ccc(F)cc2)nc2cnc(Oc3ccccc3)nc21,,"inconclusive [activator, full curve, poor fit]"
COc1ccc(NC(=O)c2sc(SC)nc2N)cc1,inactive: -1.63%,
COc1ccc(NC(=O)c2oc3ccccc3c2C)c(OC)c1,,"inconclusive [activator, single point]"
CCCc1cc2c(n1CCc1ccc(Cl)cc1)C(C)C1CN(C(=O)c3ccccc3)C(C)(C(=O)OC)C21 (configuration not stated),,"inconclusive [activator, partial curve]"
COC(=O)c1ccc(NS(=O)(=O)c2ccc3c(c2)oc(=O)n3C)cc1,,active: 1.26 µM
CC(=O)c1ccc(N(C)C)c2c(N(C)C)cccc12,,"inconclusive [activator, partial curve]"
CC(C)c1[nH]nc2c1C(c1ccc(OC(=O)c3ccco3)cc1)C(C#N)=C(N)O2 (configuration not stated),,"inconclusive [activator, single point]"
COc1ccccc1CNC(=O)c1cc2c(=O)n(C)c3ccccc3c2n1C,,"inconclusive [activator, single point]"
CCCCn1c(SCC(=O)c2cc(OC)ccc2OC)nc2cc(S(N)(=O)=O)ccc21,,active: 25.1 µM
CCCOc1ccc2c3c(c(=O)oc2c1OCCC)CCC3,,active: 3.16 µM
c1ccc(-c2cc(N3CCCCC3)ncn2)cc1,,"inconclusive [activator, single point]"
COCCN1C(=O)c2ccc(C(=O)Nc3nccs3)cc2C1=O,inactive: 1.25%,
OC(Cn1cccn1)c1ccccc1 (configuration not stated),,"inconclusive [activator, single point]"
CCCS(=O)(=O)c1nc(S(=O)(=O)c2ccc(C)cc2)c(NCCN2CCOCC2)s1,inactive: 9.64% [at 11.4 µM],
CCCCCNC(=O)c1ccc2c(=O)n(CC3CCCO3)c(=O)[nH]c2c1 (configuration not stated),inactive: 3.24%,
O=C(Cc1coc(-c2ccc(F)cc2)n1)NCc1ccccc1,,"inconclusive [activator, single point]"
CCc1cccc2c3c([nH]c12)[C@](CC)(CC(=O)O)OCC3,,"inconclusive [activator, partial curve]"
CCc1cccc(C)c1NC(=O)CSc1nnc(-c2ccco2)n1N,inactive: 9.32%,
C[C@@H](C(=O)NCCF)[C@H]1C[C@]1(C)[C@H](NC(=O)OCc1ccccc1)c1ccccc1,,active: 15.8 µM
COc1ccccc1CNc1cc(-c2ccccc2Cl)ncn1,,active: 15.8 µM
c1ccc(CNc2ccnc(-c3ccoc3)n2)cc1,,"inconclusive [activator, partial curve]"
Cc1noc(C)c1S(=O)(=O)N1CCC(C(=O)N2CCN(C(=O)c3ccco3)CC2)CC1,,"inconclusive [activator, single point]"
CN1CCN(c2nc(NCCOC34CC5CC(CC(C5)C3)C4)nc(OCC(F)(F)F)n2)CC1,,"inconclusive [activator, single point]"

SMILES,activation,Potency
O=C(NCc1nc2ccccc2[nH]1)c1cccs1,,active: 5.01 µM
CC(C)(C)n1nnnc1C(c1ccccc1F)N(Cc1ccco1)CC1CCCO1 (configuration not stated),,active: 12.6 µM
CN(C)Cc1nc2ccccc2c(=O)n1Cc1nc(C(C)(C)C)cs1,,"inconclusive [activator, single point]"
CC(=O)NCCOc1ccc(C(=O)O)cc1,,"inconclusive [activator, single point]"
CCC(C)(C)n1nnnc1C(c1ccncc1)N1CCN(c2cccc(OC)c2)CC1 (configuration not stated),,active: 2.51 µM
O=C1c2ccccc2NC(c2ccc(F)cc2)N1Cc1ccco1 (configuration not stated),,"inconclusive [activator, partial curve]"
Cn1cccc1C(=O)N1CCC[C@@]2(CCN(C(c3ccccc3)c3ccccc3)C2)C1,,active: 10 µM
CCCCN(CC)CCCNC(=O)c1cc2cc3ccc(OC)cc3nc2o1,,"inconclusive [activator, single point]"
COc1cc(NC(=O)CC(C)C)ccc1NC(=O)c1ccco1,inactive: 8.78% [at 11.4 µM],
CC(C)[C@@H](CC(=O)N[C@@H]1CCCC[C@H]1C(=O)N[C@H](CC(=O)N[C@@H](CCC(=O)O)CC(=O)O)Cc1ccccc1)NC(=O)C[C@H](Cc1c[nH]c2ccccc12)NC(=O)[C@@H]1CCCC[C@H]1N,inactive: 9.27%,
Cc1cc(C)c(NC(=O)Cn2cc3c(n2)CCCC3)c(C)c1,,"inconclusive [activator, single point]"
O=C(Nc1ccc(Cl)cn1)C1CCCN1S(=O)(=O)c1ccc(Cl)cc1 (configuration not stated),inactive: 24.2%,
NCCC[C@@H](CC(=O)N[C@@H]1CCCC[C@H]1C(=O)N[C@H](CC(=O)N[C@@H](CCC(=O)O)CC(=O)O)Cc1ccccc1)NC(=O)C[C@H](CO)NC(=O)[C@@H]1CCCC[C@H]1N,inactive: 2.79%,
O=C(CSc1nnnn1-c1ccccc1)N1CCc2ccccc21,,"inconclusive [activator, single point]"
COCCn1c(=O)c(-c2cccs2)nc2cnc(N3CCOCC3)nc21,inactive: 3.97%,
COc1ccccc1CCn1c(=O)c(-c2cn(C)c3ccccc23)nc2cncnc21,,"inconclusive [activator, full curve, poor fit]"
O=C(NCCC1=CCCCC1)C1CCCN(S(=O)(=O)c2cccc3cccnc23)C1 (configuration not stated),,"inconclusive [activator, partial curve]"
Cc1ccc(C(C(=O)NC2CCCCC2)N(C(=O)c2csnn2)C2CCCC2)o1 (configuration not stated),,"inconclusive [activator, single point]"
CC1CCc2c(sc3ncnc(N4CCOCC4)c23)C1 (configuration not stated),,"inconclusive [activator, single point]"
c1ccc(-c2noc(CSc3nnnn3-c3ccccc3)n2)cc1,,"inconclusive [activator, single point]"
CC(OC(=O)c1ccccc1NCc1ccco1)C(=O)Nc1ncc(Cl)cc1Cl (configuration not stated),,"inconclusive [activator, full curve]"
